Results taken from article PMC10668032.
The other results are listed elsewhere or left out. At the low end of the ranking the order means little.

target: SIX1-Q177R homeodomain (UniProt Q15475); assay: universal protein binding microarray; conditions: Universal all-10-mer PBM (8x60K, AMADID 030236), 300 nM GST-tagged protein, Alexa Fluor 488 anti-GST; buffer, salt, pH and temperature not stated; high values mean tight binding; most listed sequences are background and not binding sites; double strand, one strand shown

Sequence | binding signal [E-score]
ATGCCTTC | -0.00166
CCACCATC | -0.0588
ACGGATCT | 0.0527
ACTTTTCG | -0.145
CCGCGCAG | -0.151
AATAGTAT | 0.0509
ACGAGTGC | -0.034
CAGGGGAG | 0.0638
AGACTATC | -0.0507
ACGTGCAG | 0.0977
CGGAGACA | 0.0809
GTGCCGGA | -0.0582
ACTAGACA | 0.0932
CTTGCAGC | -0.383
ACGAATGG | -0.148
ACCCCGTG | 0.356
TAGACTGA | -0.145
AAATGTCC | -0.16
GTTTAGAA | -0.0607
TGTGTGAA | 0.187
CCTCCGAC | -0.0114
CAGGCTCA | -0.0317
CTTGCTAA | -0.196
ATAGAGAG | -0.211
GATGGAAA | -0.0901

Sequence | binding signal [E-score]
ATGGGTGA | 0.0911
AACCCTAG | 0.104
CCTCCTTA | 0.134
CCAGATTA | -0.039
GTCCACGA | -0.177
AATGGGGG | 0.103
AAGGGAGC | 0.0587
CGAGACAG | 0.0251
TAAGACCA | -0.14
GCTAGACC | -0.0586
AGGAGACG | -0.078
CCGAAGCC | -0.164
CGAACTCA | -0.198
AGCATATA | -0.116
CGCTTCGC | -0.113
AGGCAAAT | -0.203
GCCTGATA | -0.11
ATAAACCG | 0.0455
CAGCCGAA | -0.0868
CATCCCGG | 0.0946
CACATCAG | -0.0226
CATCCACA | 0.177
AGGCTACG | -0.00497
GCGTAGCC | -0.0748
GAACCTAA | -0.098

Sequence | binding signal [E-score]
ACGAAGCG | 8e-05
CCACAACG | -0.075
CGTTATGA | 0.0627
CCTGTTTC | -0.173
CGGTTCGA | 0.0241
CTCTTATA | 0.0846
GCAAACCC | 0.0906
AAACCCGA | 0.0673
ATAATAAG | 0.0755
TCTGACAA | -0.0348
GCCTTAGA | -0.0259
AAATTCGT | -0.0758
CACTATCC | 0.196
CCAACCCG | 0.113
ATCGTCAC | 0.147
AGGATACC | 0.337
GGTGCAAA | 0.138
AATGGTGA | -0.0338
CGGATGCC | 0.0748
ACCTCGGG | 0.273
CAGTTCAA | -0.179
ATTTAGTA | -0.0808
CCAAAAAA | -0.17
TGGAAACA | 0.223
ACCTCGGC | -0.0893

Sequence | binding signal [E-score]
AATCGGCT | -0.2
AGATTCAA | -0.304
CAACGCAC | -0.0433
AAACCTAT | -0.237
AGCTGTTA | -0.274
AAAACAAA | -0.0789
CAGCCCAC | -0.278
CTATATTC | -0.0762
AAGTACAG | -0.294
AGGAGTGA | 0.0183
GAAAAATA | -0.104
ACGTCTTC | -0.0447
TATTAGGA | -0.125
AACCCGCT | 0.0726
GAGCGTCA | -0.0393
ATTAAGTA | 0.0478
ATTCCGTG | 0.2
ATATTGAC | 0.00453
GACCCGCC | 0.18
CGCACGCC | -0.0509
CTCGGCGC | -0.105
AGGCAGAC | -0.037
AACTTCTG | -0.283
ATCACGGC | -0.171
CATCGCCC | 0.0637

Sequence | binding signal [E-score]
CGACGCAG | -0.0203
AGCAAATG | -0.182
CGTGGTGC | 0.187
GGAATAAA | 0.0126
CCGATACA | 0.129
CTAGGTTA | -0.279
GGCAGCAC | 0.0446
CATCTTGA | -0.145
ACCGCTCC | 0.0647
GTAACGTA | 5e-06
CGGAACTC | 0.128
GCAGCGGA | -0.131
CAACAGGA | -0.052
ACCTGCGA | 0.0341
GACGGGAA | -0.201
CCCTGTTA | 0.0394
CCTTACCA | 0.0674
ATCCGATA | 0.141
CAAGATGA | -0.039
AATTGAGA | -0.0914
AATTCAAT | -0.0892
CCTACGGC | -0.187
ACACCAAA | 0.466
ATGAATGA | -0.0749
CAGGTGAA | -0.133

Sequence | binding signal [E-score]
GCTTATCA | 0.0683
GAGAACCC | 0.0436
CGGTAGCA | -0.0845
AGACCTCG | 0.0395
CAACCGGG | 0.0576
CATTGACG | 0.052
TCGAGAGA | -0.192
GGACTCAA | -0.087
CTGGTACC | -0.0452
ATCCCTCC | 0.0884
AATTCGAC | -0.071
CCGACAAC | 0.0273
CAACCCTG | 0.00699
GCTGATCC | 0.0867
ATGGACTG | -0.176
AGAGACAT | -0.194
GCCCAATA | -0.0658
GTATTTTA | -0.0685
AATACCCG | 0.0887
CTGAAATA | -0.104
AAACGCTA | -0.172
ACCAGAGG | 0.0268
AGGTCTAA | -0.165
TCGCTCAA | -0.0676
AGTGGTGG | 0.126

Sequence | binding signal [E-score]
TCCTAACA | 0.0801
ACTTACAT | -0.188
CGTGAATA | -0.0602
AAGGTCTC | -0.0719
ACCTGTCA | -0.0217
ATTATCAC | -0.00577
AAGTAAAC | 0.0316
GTGCGTGA | 0.163
CTTTGACA | 0.219
CATCTCGA | 0.0477
CGAAAGTA | -0.106
AGTTCTGG | -0.0199
GACAAGAA | -0.036
CAAGTCGG | -0.0253
TCCCATAA | 0.0199
AGGGCCTG | -0.185
GGTAAACA | 0.188
ACGAGATG | -0.00357
ATGTATGG | -0.153
CAAAAACG | -0.0326
AGTCTTGA | -0.192
CGTGCTGA | 0.0502
GTAGTGCA | 0.105
ACACTCCT | 0.391
AGGAATAA | -0.0131

Sequence | binding signal [E-score]
ATTAGGAC | -0.242
CATCGCTA | -0.116
CGTATAGA | -0.135
GCTTTTCC | -0.232
GTAGGTGA | 0.0838
CCGACAGA | -0.0246
ACCTGCCC | 0.143
CTCCATCA | 0.106
CGCTACAG | -0.145
ACGGCCAT | -0.163
ACATCGCT | -0.258
GACATATA | -0.143
CCTTAAGG | 0.0537
ACCTTCCT | 0.264
CGCAGAGC | -0.153
TCATTAGA | 0.0173
CGTCGGAC | -0.0258
ATCTTAGG | -0.0398
GAAGCACC | 0.238
AGTTCACG | -0.186
ATCCTCGA | -0.0809
AGGGTTAC | 0.162
ACGTAGAC | -0.00903
CAAAAGCC | -0.353
GCTCACTA | -0.0167

Sequence | binding signal [E-score]
AGGCCACG | -0.159
AAAAGAGG | -0.155
GACTGCAC | 0.0183
AGAAAGCG | -0.0958
CCAATAAG | -0.18
CGCAAACA | 0.181
AAGCGGCC | -0.263
CATTCCCG | -0.0983
AAACCGTA | 0.0896
ACATATCT | -0.18
GTTGACGA | 0.0727
ACAATGAT | -0.0568
AAAGACCA | -0.217
AAATGGGC | -0.207
GCCAACCC | 0.0805
AAAGACGG | -0.0974
GACCGGCC | -0.11
CCACTTAA | -0.247
GAGATTAC | -0.103
